Measurements as given in PubChem BioAssay AID463173 (ICCB-Longwood Screening Facility, Harvard Medical School, 2010).
The whole screen tested about 52,000 compounds, of which about 1,700 (3.3%) were called active. Cut-off read from the data, not from the text of the source: active = survival mostly below about 52% (no sharp cut-off); inactive = mostly above about 56%. The list shows a part of the results.

tested on: Wild type; assay: S. aureus survival, RN4220 and DeltatarO strains – OD600, teichoic acid synthesis inhibitors, primary screen (AID 463173); conditions: S. aureus RN4220 wild type/DeltatarO growth, OD600, 18 h, stronger effect = lower value, screened at 18.75 µg/mL (by protocol)

SMILES	survival
Cc1ccc2c(=O)cc(C(=O)Nc3ccc(S(=O)(=O)Nc4ncccn4)cc3)oc2c1C	inactive: 86%
Cc1cc(C)c(NC(=O)C2CCN(c3nn4c(=O)cc(C)nc4s3)CC2)c(C)c1	inactive: 90%
COc1ccc(NCc2cccn2-c2nnc(N3CCCCC3)s2)cc1OC	inactive: 75%
COc1ccccc1CNC(=O)c1cn(C)c2ccc(S(=O)(=O)N(C)C3CCCCC3)cc2c1=O	inactive: 74%
Cc1ccc(NC(=O)CSc2cn(CC(=O)N3CCCC3)c3ccccc23)cc1Cl	inactive: 97%
CCOc1ccc(NS(=O)(=O)c2ccc3c(c2)CCCN3C(=O)C2CCC2)cc1	inactive: 74%
COc1ccc(CCNc2ncnc3c2cnn3-c2cc(Cl)ccc2C)cc1	inactive: 159%
Cc1ccc(NC(=O)Cn2c(=O)nc(-c3ccccc3)c3ccccc32)cc1F	inactive: 66%
CC(C)(C)C1CCc2oc3ccc(NS(=O)(=O)c4ccc(C(=O)O)cc4)cc3c2C1 (centres undefined)	inactive: 52%
COc1ccc(Cn2c(SCC(=O)N(C)Cc3ccccc3)nc3ccccc32)cc1	inactive: 92%
Cc1ccc(NC(=O)c2cc(S(=O)(=O)NCCc3ccc(Cl)cc3)ccc2F)cc1	inactive: 74%
Cc1cccc(-c2noc(-c3ccc(N4CCOCC4)c([N+](=O)[O-])c3)n2)c1	inactive: 87%
CC1CCN(S(=O)(=O)c2ccc3c(ccc(=O)n3CC(=O)Nc3cccc(F)c3)c2)CC1	inactive: 121%
O=C(Nc1cnc(N2CCN(c3ccccc3)CC2)c(C(=O)O)c1)c1cccs1	inactive: 124%
CN1CCc2c(sc3c2C(=O)NC(c2ccc(C(C)(C)C)cc2)N3)C1 (centres undefined)	inactive: 74%
CC1CCCCN1C(=O)c1cc(-c2ccc(Br)cc2)on1 (centres undefined)	inactive: 84%
CC1=C(C(=O)N2CCN(c3cccc(Cl)c3)CC2)C2(CCCCC2)OC1=O	inactive: 69%
CCOC(=O)C1CCN(c2nc3c(S(=O)(=O)c4ccc(C)c(C)c4)nnn3c3ccc(Cl)cc23)CC1	inactive: 121%
CCN(CC)S(=O)(=O)c1ccc2nc(NC(=O)c3cncc(Br)c3)sc2c1	inactive: 73%
CCN(C(=O)c1cc2c(=O)oc3ccc(C)cc3c2s1)c1ccccc1C	inactive: 81%
Cc1ccc(OCc2nc(-c3ccc(C(=O)NCc4ccc(OC(C)C)cc4)cc3)oc2C)cc1	inactive: 119%
Cc1cccn2c(=O)c(C(=O)NC(C)c3ccccc3)cnc12 (centres undefined)	inactive: 82%
Cc1nc2scc(C)n2c(=O)c1S(=O)(=O)NCCc1ccccc1	inactive: 122%
Cc1ccc(C)c(CN2C(=O)c3ccccc3S(=O)(=O)c3ccc(C(=O)NCCC4=CCCCC4)cc32)c1	inactive: 82%
